Results published in paper PMC9911399, “Two distinct binding modes provide the RNA-binding protein RbFox with extraordinary sequence specificity”.
Changes are numbered by the printed parent chain; changes in the protein carry UniProt numbers. The list shows a part of the results.

T1: RBFOX1 RRM RbFoxmut (Fox-RRM*) (Homo sapiens, UniProt Q9NWB1 109-208, R118D;E147R;N151S;E152T)
T1 sequence: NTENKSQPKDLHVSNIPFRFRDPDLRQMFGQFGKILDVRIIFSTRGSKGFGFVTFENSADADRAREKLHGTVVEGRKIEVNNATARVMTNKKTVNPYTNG

B1: CGUUACG (DNA:RNA)
RNA: GGGAGACCGGAAUUCAGAUUGUCCCGUUACGUUAAAUCCCGUCGUAGCCACCA
DNA 1: CAATCTGAATTCCGGTCTCCC
DNA 2: TGGTGGCTACGACGGGATT
B2: AGUGGGG (DNA:RNA)
RNA: B1 RNA with C25A, U28G, A29G, C30G
DNA 1: CAATCTGAATTCCGGTCTCCC
DNA 2: TGGTGGCTACGACGGGATT
B3: CAAGUUG (DNA:RNA)
RNA: B1 RNA with G26A, U27A, U28G, A29U, C30U
DNA 1: CAATCTGAATTCCGGTCTCCC
DNA 2: TGGTGGCTACGACGGGATT
B4: CGGUAAG (DNA:RNA)
RNA: B1 RNA with U27G, C30A
DNA 1: CAATCTGAATTCCGGTCTCCC
DNA 2: TGGTGGCTACGACGGGATT
B5: CCAACGU (DNA:RNA)
RNA: B1 RNA with G26C, U27A, U28A, A29C, C30G, G31U
DNA 1: CAATCTGAATTCCGGTCTCCC
DNA 2: TGGTGGCTACGACGGGATT
B6: GUGGGGG (DNA:RNA)
RNA: B1 RNA with C25G, G26U, U27G, U28G, A29G, C30G
DNA 1: CAATCTGAATTCCGGTCTCCC
DNA 2: TGGTGGCTACGACGGGATT
B7: UGAGCUG (DNA:RNA)
RNA: B1 RNA with C25U, U27A, U28G, A29C, C30U
DNA 1: CAATCTGAATTCCGGTCTCCC
DNA 2: TGGTGGCTACGACGGGATT
B8: AACUAUC (DNA:RNA)
RNA: B1 RNA with C25A, G26A, U27C, C30U, G31C
DNA 1: CAATCTGAATTCCGGTCTCCC
DNA 2: TGGTGGCTACGACGGGATT
B9: GAGUGAU (DNA:RNA)
RNA: B1 RNA with C25G, G26A, U27G, A29G, C30A, G31U
DNA 1: CAATCTGAATTCCGGTCTCCC
DNA 2: TGGTGGCTACGACGGGATT
B10: GCAACCC (DNA:RNA)
RNA: B1 RNA with C25G, G26C, U27A, U28A, A29C, G31C
DNA 1: CAATCTGAATTCCGGTCTCCC
DNA 2: TGGTGGCTACGACGGGATT
B11: AUAUGUU (DNA:RNA)
RNA: B1 RNA with C25A, G26U, U27A, A29G, C30U, G31U
DNA 1: CAATCTGAATTCCGGTCTCCC
DNA 2: TGGTGGCTACGACGGGATT
B12: GCGCACG (DNA:RNA)
RNA: B1 RNA with C25G, G26C, U27G, U28C
DNA 1: CAATCTGAATTCCGGTCTCCC
DNA 2: TGGTGGCTACGACGGGATT
B13: UGUCAUG (DNA:RNA)
RNA: B1 RNA with C25U, U28C, C30U
DNA 1: CAATCTGAATTCCGGTCTCCC
DNA 2: TGGTGGCTACGACGGGATT
B14: GAACGGC (DNA:RNA)
RNA: GGGAGACCGGAAUUCAGAUUGUCCGAACGGCUUAAAUCCCGUCGUAGCCACCA
DNA 1: CAATCTGAATTCCGGTCTCCC
DNA 2: TGGTGGCTACGACGGGATT
B15: AGCUAUG (DNA:RNA)
RNA: B1 RNA with C25A, U27C, C30U
DNA 1: CAATCTGAATTCCGGTCTCCC
DNA 2: TGGTGGCTACGACGGGATT
B16: CAGUGGU (DNA:RNA)
RNA: B14 RNA with G25C, A27G, C28U, C31U
DNA 1: CAATCTGAATTCCGGTCTCCC
DNA 2: TGGTGGCTACGACGGGATT
B17: CACCAUA (DNA:RNA)
RNA: B1 RNA with G26A, U27C, U28C, C30U, G31A
DNA 1: CAATCTGAATTCCGGTCTCCC
DNA 2: TGGTGGCTACGACGGGATT
B18: GGGUGUC (DNA:RNA)
RNA: B14 RNA with A26G, A27G, C28U, G30U
DNA 1: CAATCTGAATTCCGGTCTCCC
DNA 2: TGGTGGCTACGACGGGATT
B19: CCAGAUA (DNA:RNA)
RNA: B1 RNA with G26C, U27A, U28G, C30U, G31A
DNA 1: CAATCTGAATTCCGGTCTCCC
DNA 2: TGGTGGCTACGACGGGATT
B20: CGCGACG (DNA:RNA)
RNA: B1 RNA with U27C, U28G
DNA 1: CAATCTGAATTCCGGTCTCCC
DNA 2: TGGTGGCTACGACGGGATT
B21: GCCUCCU (DNA:RNA)
RNA: B1 RNA with C25G, G26C, U27C, A29C, G31U
DNA 1: CAATCTGAATTCCGGTCTCCC
DNA 2: TGGTGGCTACGACGGGATT
B22: AGUAGCU (DNA:RNA)
RNA: B1 RNA with C25A, U28A, A29G, G31U
DNA 1: CAATCTGAATTCCGGTCTCCC
DNA 2: TGGTGGCTACGACGGGATT
B23: AUGACGA (DNA:RNA)
RNA: B14 RNA with G25A, A26U, A27G, C28A, G29C, C31A
DNA 1: CAATCTGAATTCCGGTCTCCC
DNA 2: TGGTGGCTACGACGGGATT
B24: GUAAAUC (DNA:RNA)
RNA: B14 RNA with A26U, C28A, G29A, G30U
DNA 1: CAATCTGAATTCCGGTCTCCC
DNA 2: TGGTGGCTACGACGGGATT
B25: UGGUCCU (DNA:RNA)
RNA: B1 RNA with C25U, U27G, A29C, G31U
DNA 1: CAATCTGAATTCCGGTCTCCC
DNA 2: TGGTGGCTACGACGGGATT
B26: UACUCAA (DNA:RNA)
RNA: B1 RNA with C25U, G26A, U27C, A29C, C30A, G31A
DNA 1: CAATCTGAATTCCGGTCTCCC
DNA 2: TGGTGGCTACGACGGGATT
B27: ACUAAGU (DNA:RNA)
RNA: B1 RNA with C25A, G26C, U28A, C30G, G31U
DNA 1: CAATCTGAATTCCGGTCTCCC
DNA 2: TGGTGGCTACGACGGGATT
B28: CCCAGCC (DNA:RNA)
RNA: B1 RNA with G26C, U27C, U28A, A29G, G31C
DNA 1: CAATCTGAATTCCGGTCTCCC
DNA 2: TGGTGGCTACGACGGGATT
B29: AUUGAAC (DNA:RNA)
RNA: B1 RNA with C25A, G26U, U28G, C30A, G31C
DNA 1: CAATCTGAATTCCGGTCTCCC
DNA 2: TGGTGGCTACGACGGGATT
B30: GUCUGUG (DNA:RNA)
RNA: B1 RNA with C25G, G26U, U27C, A29G, C30U
DNA 1: CAATCTGAATTCCGGTCTCCC
DNA 2: TGGTGGCTACGACGGGATT
B31: CCACGCA (DNA:RNA)
RNA: B14 RNA with G25C, A26C, G30C, C31A
DNA 1: CAATCTGAATTCCGGTCTCCC
DNA 2: TGGTGGCTACGACGGGATT

Molecular target: T1, RBFOX1 RRM RbFoxmut (Fox-RRM*)
Assay: EMSA; HiTS-Eq, 1 nM pool, 10 min; buffer printed only for the single-RNA assays: 10 mM Tris pH 7.5, 150 mM NaCl, 3.4 mM EDTA, 0.001% NP-40, 30 C
Conditions: tags: His6 N-terminal (pET28a); label: 5' 32P
Method in brief: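 These values rest on relative association constants, computed from read-count changes of each RNA species versus the control reaction and normalised to the cognate motif. Reads came from free RNA recovered by 8% native PAGE after purified RbFox RRM (wild type or mutant) at increasing concentrations was equilibrated for 10 min in 50 µL with 1 nM of a 5′-radiolabelled pool with 7 randomized nucleotides and DNA-annealed flanks.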

Binder | binding signal
B1 | 0.137 KA relative to UGCAUGU
B2 | 0.116 KA relative to UGCAUGU
B3 | 0.13 KA relative to UGCAUGU
B4 | 0.0872 KA relative to UGCAUGU
B5 | 0.113 KA relative to UGCAUGU
B6 | 0.104 KA relative to UGCAUGU
B7 | 0.101 KA relative to UGCAUGU
B8 | 0.0669 KA relative to UGCAUGU
B9 | 0.101 KA relative to UGCAUGU
B10 | 0.0513 KA relative to UGCAUGU
B11 | 0.139 KA relative to UGCAUGU
B12 | 0.397 KA relative to UGCAUGU
B13 | 0.597 KA relative to UGCAUGU
B14 | 0.152 KA relative to UGCAUGU
B15 | 0.229 KA relative to UGCAUGU
B16 | 0.13 KA relative to UGCAUGU

Binder | binding signal
B17 | 0.138 KA relative to UGCAUGU
B18 | 0.368 KA relative to UGCAUGU
B19 | 0.14 KA relative to UGCAUGU
B20 | 0.118 KA relative to UGCAUGU
B21 | 0.0603 KA relative to UGCAUGU
B22 | 0.0966 KA relative to UGCAUGU
B23 | 0.0609 KA relative to UGCAUGU
B24 | 0.0595 KA relative to UGCAUGU
B25 | 0.0987 KA relative to UGCAUGU
B26 | 0.0652 KA relative to UGCAUGU
B27 | 0.126 KA relative to UGCAUGU
B28 | 0.109 KA relative to UGCAUGU
B29 | 0.101 KA relative to UGCAUGU
B30 | 0.191 KA relative to UGCAUGU
B31 | 0.151 KA relative to UGCAUGU
